The other results are listed elsewhere or left out.
Target: no compound (DMSO)
Test: log2 fold change of degron read counts, EGFP-low vs EGFP+ sorted cells; higher = lower degron-EGFP level without compound (poor expression or instability)
Conditions: compound: DMSO control; 18 h
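Further: jurkat cells carrying a lentiviral library of mutant zinc finger degrons fused to EGFP plus mCherry, mCherry+ cells FACS sorted, degron abundance counted by next-generation sequencing.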

Sequence | log2 fold change of degron read counts
FWCDQCGAAFTQKGNLLRHIKL | -0.506
FACNQCGRHFTQKGNLLRHIKL | -0.0468
FQCNVCGAYFTQKGNLLRHIKL | -0.191
FNCEQCGADFTQKGNLLRHIKL | -2.38
FECDICGAAFTQKGNLLRHIKL | -2.01
FKCNICGALFTQKGNLLRHIKL | -1.32
LLCNQCGFACTQKGNLLRHIKL | 0.246
FYCEICGAPFTQKGNLLRHIKL | -0.689
LVCPICGFVCTQKGNLLRHIKL | 1.31
FHCNICGAPFTQKGNLLRHIKL | -0.0573
FACEICGRIFTQKGNLLRHIKL | -0.412
LWCNQCGFWCTQKGNLLRHIKL | 2.8
FTCPICGHWFTQKGNLLRHIKL | -0.136
LVCNQCGFPCTQKGNLLRHIKL | 0.368
FKCPICGHEFTQKGNLLRHIKL | -0.623
FSCNQCGRAFTQKGNLLRHIKL | -0.785
FKCPICGRSFTQKGNLLRHIKL | -0.0858
FMCNQCGHCFTQKGNLLRHIKL | -0.242
FQCEQCGAPFTQKGNLLRHIKL | -1.24
FQCEICGAVFTQKGNLLRHIKL | -1.92
FACPQCGAAFTQKGNLLRHIKL | -0.791
FRCPVCGAMFTQKGNLLRHIKL | -0.0776
FKCDICGAPFTQKGNLLRHIKL | -0.722
FRCEICGHSFTQKGNLLRHIKL | -0.973
FLCNICGADFTQKGNLLRHIKL | -1.7

Sequence | log2 fold change of degron read counts
FECEICGHQFTQKGNLLRHIKL | -2.81
FNCNICGAQFTQKGNLLRHIKL | -1.14
FGCEVCGAKFTQKGNLLRHIKL | -1.5
FSCPICGREFTQKGNLLRHIKL | -0.429
FFCEICGAVFTQKGNLLRHIKL | -0.206
FECPICGHGFTQKGNLLRHIKL | -0.793
FLCEICGRKFTQKGNLLRHIKL | -1.7
FTCNQCGAMFTQKGNLLRHIKL | -0.447
FCCDVCGAVFTQKGNLLRHIKL | -1.34
FHCNQCGHKFTQKGNLLRHIKL | 0.157
FCCPICGRRFTQKGNLLRHIKL | -0.463
FRCPICGAAFTQKGNLLRHIKL | -0.41
FVCEICGAFFTQKGNLLRHIKL | -1.04
FLCPICGHSFTQKGNLLRHIKL | -0.743
FMCEQCGARFTQKGNLLRHIKL | -0.937
FRCSVCGHHFTQKGNLLRHIKL | -0.201
FLCDQCGANFTQKGNLLRHIKL | -2.79
FHCPICGAAFTQKGNLLRHIKL | -0.993
FICDICGARFTQKGNLLRHIKL | -1.38
FLCDQCGAEFTQKGNLLRHIKL | -3.39
FMCNICGAYFTQKGNLLRHIKL | 0.167
FFCPICGHCFTQKGNLLRHIKL | 0.187
LNCPICGFKCTQKGNLLRHIKL | 0.187
FVCDVCGAWFTQKGNLLRHIKL | -0.783
FHCNQCGRIFTQKGNLLRHIKL | 0.755

— the supplement of paper PMC12645437, “Orthogonal IMiD-Degron Pairs Induce Selective Protein Degradation in Cells” (ACS Chemical Biology, 2025)
